# Experimental data from ChEMBL document CHEMBL4888484, “Replenishing the malaria drug discovery pipeline: Screening and hit evaluation of the MMV Hit Generation Library 1 (HGL1) against asexual blood stage Plasmodium falciparum ,using a nano luciferase reporter read-out” (2022).
# Out of some 150,000 compounds screened, about 540 (0.36%) showed an effect of 50% or more. The list shows a part of the results.
# Test system: Plasmodium falciparum
# Experiment: Primary screen in NF54 nanoGlo assay, in single point, at 2uM, 72h; a lower Z score goes with more inhibition
# Type: functional, Erythrocyte
# Conditions: timepoint 72 hour
SMILES,% Inhibition,Z score
Cc1ccc(-c2nc(S(=O)(=O)c3ccc4c(c3)OCCO4)c(N3CCC(C(N)=O)CC3)o2)cc1,-14%,1.89
CC1(C)CN(C(=O)CCCc2nnn[nH]2)[C@H]2CCC[C@H]21,-7%,1.47
Oc1ccccc1C1=NN(c2nc(-c3cccc(Cl)c3)cs2)[C@H](c2ccccc2)C1,3%,-0.4
CCOC(=O)[C@@H]1CCCCN1C1CCC(c2ccccc2)CC1 (stereo not given in full),-11%,2.11
CCCCN(CC)c1ccc(C(=O)O)cc1,-1%,0.1
C[C@H](NCc1ncccc1F)c1cccs1,4%,-0.54
CC(C)[C@H](C)N(Cc1ccco1)C(=O)c1ccncc1Cl,-10%,1.25
CC1CN(Cc2ccccc2)CCC1NC(=O)C1CC2CCC1O2 (stereo not given),-8%,0.72
Cc1ccc(CNC(=O)[C@@H](C#N)C(=O)CCn2ccccc2=O)cc1,-6%,0.69
CC(CO)NC(C)CCc1ccc(OC(F)F)cc1 (stereo not given),2%,-0.4
CCC(C)[C@H](NC(=O)N1CCCC1)C(=O)N(CCOC)CCOC (stereo not given in full),-2%,0.32
CCCN(CCC)S(=O)(=O)NCCn1ccc(=O)[nH]c1=O,-8%,1.17
COC[C@@](C)(O)CNC(=O)c1c(C)cc(C)cc1C,-12%,1.81
c1c[nH]c([C@@H]2CCCCN2CC2CCC2)n1,-5%,0.87
COC[C@]1(O)CCOC2(CCN(Cc3ccc(C#N)cc3)CC2)C1,-11%,1.91
C[C@@]1(C(=O)NCCc2ncc[nH]2)CCCCO1,-9%,0.79
Cc1cncc(CCc2nc(-c3ccn(C)n3)no2)c1,-5%,0.63
Cc1cccc(-n2nc(-c3nc(-c4cccc(Cl)c4)no3)c3ccccc3c2=O)c1,21%,-2.4
O=C(Nc1nc2c(s1)CN(Cc1ccccc1)CC2)[C@@H]1COc2ccccc2O1,-4%,0.47
O=C(CC1CCCCC1)NC1CCN(Cc2cncs2)CC1,13%,-1.38
O=C(Cn1cnc2ccccc2c1=O)Nc1ccc(Cl)cn1,-7%,0.85
COc1ccc(-c2csc3ncnc(N4CCC[C@H](CN(C)Cc5cccnc5)C4)c23)cc1,0%,-0.02
CC(C)(C)c1cn(C[C@H]2CCCN(C(=O)c3ccc4c(c3)CCO4)C2)nn1,8%,-1.37
CCC(C)c1csc(NC(=O)NC2CCC(=O)N(C)C2)n1 (stereo not given),-1%,0.21
CC1=CC(C)=Nc2cc(S(=O)(=O)N3CCOCC3)ccc2N1,-1%,0.12
COc1ccc(CN2C(=O)N[C@@](NC(=O)CCc3ccccc3)(C(F)(F)F)C2=O)cc1,-3%,0.37
CN(C)c1ccc(NC(=O)c2ccc3c4c(cccc24)CC3)cn1,2%,-0.32
CC(=O)c1cc(CN2CCC3(CCC(=O)N(C4CC4)C3)CC2)n(C)c1,3%,-0.24

SMILES,% Inhibition,Z score
Cc1noc(C)c1CCC(=O)N(C)Cc1csc(-c2cccs2)n1,-11%,2.06
COc1cccc(N2CCN(Cc3[nH]cnc3C)[C@@H](C)C2=O)c1,-9%,1.8
O=C(NC1CC1)c1ccoc1C(F)(F)F,8%,-0.98
COC1(c2noc(CCc3cncnc3)n2)CCC1,2%,-0.26
CC(=O)Nc1ccc2cc(S(=O)(=O)N3CCn4c(nc5ccccc54)C3)cc(S(=O)(=O)c3ccccc3)c2c1,-10%,1.21
CC(=O)Nc1nonc1-n1c(C)ccc1C,-13%,1.94
CCN(CC)C(=O)CN[C@@H](Cc1ccc(F)cc1)C(C)C,-4%,0.66
Cc1ccc(NC(=O)N(Cc2ccco2)C2CC2)cc1Cl,-11%,1.04
Cc1cc(CN2C(=O)NC3(CCCCCCC3)C2=O)no1,-6%,0.55
O=C(c1ncoc1C1CCCO1)N1CC2CCCC2C1 (stereo not given),-4%,0.55
COCC1(CNC(=O)N2CC[C@H](N3CCCS3(=O)=O)C2)CCC1,6%,-1.23
CCn1c(-c2cc(NC(=O)c3ccc(C)cc3C)[nH]n2)c(C)c2ccccc21,-16%,1.76
Clc1ccc2c(Oc3ccc(-n4cccn4)cc3)ncnc2c1,11%,-1.27
COc1cc(C(=O)O)cc(C(=O)NC[C@@H](c2cccnc2)N2CCCCC2)c1,-3%,0.44
Cc1ccc2nc3c(cc2c1)CCN3C(=O)c1ccc(F)cc1,-9%,0.99
CC[C@H](C)CN(C)c1ccc(F)cc1CNCCOCCN(C)C,5%,-0.98
CCCN(CCC)c1nc(C)nc2c1sc(=S)n2C,0%,0.06
Cn1cc(CNc2cccc(S(=O)(=O)N3CCC(O)CC3)c2)nn1,-7%,1.58
O=C(NCC1CC2CCC1C2)N1CCOC(Cn2cccn2)C1 (stereo not given),32%,-4.62
O=S(=O)(NCc1ccnc(-c2cccnc2)c1)c1ccc(F)c(-c2nnn[nH]2)c1,-6%,1.08
Cc1noc(C)c1C(C)CC(=O)N1CC(C)Oc2ncccc21 (stereo not given),-1%,0.12
COc1cccc2sc(OC3CN(C(=O)CCc4c(C)noc4C)C3)nc12,-5%,0.54
COc1ccc(CCCN2Cc3cc(OC)c(OC)cc3C3(CCCCC3)C2)cc1OC,-9%,1.18
Cn1cc(C(=O)NC[C@@H](c2ccsc2)N2CCC2)nn1,-8%,1.32
CCC1CC(NC(=O)N2CCCC(c3ccc(F)c(F)c3)C2)CCO1 (stereo not given),-3%,0.37
C[C@H]1CCCN(C(=O)C(=O)Nc2cc(C(F)(F)F)c[nH]c2=O)C1,-6%,1.15
CC[C@H](C)Oc1cccc(NC(=O)CC(C)(C)C(=O)O)c1,5%,-0.76
